This sample is rich in variants without activity.
B1: tRNA (parent)
chain: CUCUCGGUAGCCAAGUUGGUUUAAGGCGCAAGACUUUAAUUUAUCACUACGAAAUCUUGAGAUCGGGCGUUCGACUCGCCCCCGGGAGAUUUUUUCCUCGAGCAA

Variants of: B1
Experiment: nonsense suppression (GFP-seq) (ratio to wild type); higher = more function; SUP4oc tRNA, yeast GFP reporter sort-seq
Outline: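 Raffinose/galactose medium with 80 mg/L adenine was used to grow yeast carrying genome-integrated tRNA variants (~3% random-mutation library), RFP, and a galactose-driven GFP ochre reporter. Cells went into GFP/RFP bins, which were Illumina-sequenced, and variants with ≥100 reads and ≥30 cells were scored. Nonsense suppression (GFPSEQ) is the per-bin median GFP/RFP weighted by estimated cell share and expressed relative to the unmutated parent tRNA.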

Variant | nonsense suppression
CUCUCGGUAGCCAAGUUGGUUUAAGGCGCAAGACUUUAAUUUAUCACUACGAAAUCUUGAGAUCGGGCGUUCGACCCGCCCCCGGGGGAUUUUUUCCUCGAGCAA | 0.932
CUCUCGGUAGCCAAGUUGGUUUAAGGCGCAAGACUUUAAUUUAUCACUACGAAAUCUUGAGAUCGGGCGUUCGACCCGCCCCCGGGAGCUUUUUUCCUCGAGCAA | ≤ 0.026
CUCUCGGUAGCCAAGUUGGUUUAAGGCGCAAGACUUUAAUUUAUCACUACGAAAUCUUGAGAUCGGGCGUUCGACCCGACCCCGGGAGAUUUUUUCCUCGAGCAA | ≤ 0.026
CUCUCGGUAGCCAAGUUGGUUUAAGGCGCAAGACUUUAAUUUAUCACUACGAAAUCUUGAGAUCGGGCGUUCGACCCGCCCCGGGGAGAUUUUUUCCUCGAGCAA | ≤ 0.026
CUCUCGGUAGCCAAGUUGGUUUAAGGCGCAAGACUUUAAUUUAUCACUACGAAAUCUUGAGAUCGGGCGUUCGACCCCCCCCCGGGAGAUUUUUUCCUCGAGCAA | 0.118
CUCUCGGUAGCCAAGUUGGUUUAAGGCGCAAGACUUUAAUUUAUCACUACGAAAUCUUGAGAUCGGGCGUUCGACCCGCCCCCGGGAUGUUUUUUCCUCGAGCAA | ≤ 0.026
CUCUCGGUAGCCAAGUUGGUUUAAGGCGCAAGACUUUAAUUUAUCACUACGAAAUCUUGAGAUCGGGCGUUCGACGCGCCCCCGGGGGAUUUUUUCCUCGAGCAA | ≤ 0.026
CUCUCGGUAGCCAAGUUGGUUUAAGGCGCAAGACUUUAAUUUAUCACUACGAAAUCUUGAGAUCGGGCGUUCGACGCGACCCCGUGAGAUUUUUUCCUCGAGCAA | ≤ 0.026
CUCUCGGUAGCCAAGUUGGUUUAAGGCGCAAGACUUUAAUUUAUCACUACGAAAUCUUGAGAUCGGGCGUUCGACGCGCACCCGGGAGAUUUUUUCCUCGAGCAA | ≤ 0.026
CUCUCGGUAGCCAAGUUGGUUUAAGGCGCAAGACUUUAAUUUAUCACUACGAAAUCUUGAGAUCGGGCGUUCGACGCGCUCCCGGGAGAUUUUUUCCUCGAGCAA | ≤ 0.026
CUCUCGGUAGCCAAGUUGGUUUAAGGCGCAAGACUUUAAUUUAUCACUACGAAAUCUUGAGAUCGGGCGUUCGACGCGCCCACGGGCGAUUUUUUCCUCGAGCAA | ≤ 0.026
CUCUCGGUAGCCAAGUUGGUUUAAGGCGCAAGACUUUAAUUUAUCACUACGAAAUCUUGAGAUCGGGCGUUCGACGCGCCCCGGGGAGAUUUUUUCCUCGAGCAA | ≤ 0.026
CUCUCGGUAGCCAAGUUGGUUUAAGGCGCAAGACUUUAAUUUAUCACUACGAAAUCUUGAGAUCGGGCGUUCGACGCGCCCCCGGGAUAUUUUUUCCUCGAGCAA | ≤ 0.026
CUCUCGGUAGCCAAGUUGGUUUAAGGCGCAAGACUUUAAUUUAUCACUACGAAAUCUUGAGAUCGGGCGUUCGACUAGCCCCCGGGAGUUUUUUUCCUCGAGCAA | ≤ 0.026
CUCUCGGUAGCCAAGUUGGUUUAAGGCGCAAGACUUUAAUUUAUCACUACGAAAUCUUGAGAUCGGGCGUUCGACUAGCCACCGGAAGAUUUUUUCCUCGAGCAA | ≤ 0.026
CUCUCGGUAGCCAAGUUGGUUUAAGGCGCAAGACUUUAAUUUAUCACUACGAAAUCUUGAGAUCGGGCGUUCGACUAGCCCGCGGGAGAUUUUUUCCUCGAGCAA | ≤ 0.026
CUCUCGGUAGCCAAGUUGGUUUAAGGCGCAAGACUUUAAUUUAUCACUACGAAAUCUUGAGAUCGGGCGUUCGACUAUCCCCCGGGAGAUUUUUUCCUCGAGCAA | ≤ 0.026
CUCUCGGUAGCCAAGUUGGUUUAAGGCGCAAGACUUUAAUUUAUCACUACGAAAUCUUGAGAUCGGGCGUUCGACUAGCCCCCGGGAAAUUUUUUCCUCGAGCAA | ≤ 0.026
CUCUCGGUAGCCAAGUUGGUUUAAGGCGCAAGACUUUAAUUUAUCACUACGAAAUCUUGAGAUCGGGCGUUCGACUGGACCCCGGGAGAUUUUUUCCUCGAGCAA | ≤ 0.026
CUCUCGGUAGCCAAGUUGGUUUAAGGCGCAAGACUUUAAUUUAUCACUACGAAAUCUUGAGAUCGGGCGUUCGACUGGCACCCGGGAGAUUUUUUCCUCGAGCAA | ≤ 0.026
CUCUCGGUAGCCAAGUUGGUUUAAGGCGCAAGACUUUAAUUUAUCACUACGAAAUCUUGAGAUCGGGCGUUCGACUGGCCCGCGGGAGAUUUUUUCCUCGAGCAA | ≤ 0.026
CUCUCGGUAGCCAAGUUGGUUUAAGGCGCAAGACUUUAAUUUAUCACUACGAAAUCUUGAGAUCGGGCGUUCGACUGGCCCCGGGGAGAUUUUUUCCUCGAGCAA | ≤ 0.026
CUCUCGGUAGCCAAGUUGGUUUAAGGCGCAAGACUUUAAUUUAUCACUACGAAAUCUUGAGAUCGGGCGUUCGACUGACCCCCGGGAGAUUUUUUCCUCGAGCAA | ≤ 0.026
CUCUCGGUAGCCAAGUUGGUUUAAGGCGCAAGACUUUAAUUUAUCACUACGAAAUCUUGAGAUCGGGCGUUCGACUGGCCCCCGUGAGAUUUUUUCCUCGAGCAA | ≤ 0.026
CUCUCGGUAGCCAAGUUGGUUUAAGGCGCAAGACUUUAAUUUAUCACUACGAAAUCUUGAGAUCGGGCGUUCGACUGGCCCCCGGGACAUUUUUUCCUCGAGCAA | ≤ 0.026
CUCUCGGUAGCCAAGUUGGUUUAAGGCGCAAGACUUUAAUUUAUCACUACGAAAUCUUGAGAUCGGGCGUUCGACUUGACCCAGGGAGAUUUUUUCCUCGAGCAA | ≤ 0.026
CUCUCGGUAGCCAAGUUGGUUUAAGGCGCAAGACUUUAAUUUAUCACUACGAAAUCUUGAGAUCGGGCGUUCGACUUGCCCCCCGGAGAUUUUUUCCUCGAGCAA | ≤ 0.026
